# The supplement of paper PMC12217912
# Some of the results follow. The full chains were built here from the parent and the listed change. Inactive controls read about 0.05.
# B1: TEV protease; numbered along this chain (parent)
# chain: MGESLFKGPRDYNPISSSICHLTNESDGHTTSLYGIGFGPFIITNKHLFRRNNGTLVVQSLHGVFKVKDTTTLQQHLVDGRDMIIIRMPKDFPPFPQKLKFREPQREERICLVTTNFQTKSMSSMVSDTSCTFPSGDGIFWKHWIQTKDGQCGSPLVSTRDGFIVGIHSASNFTNTNNYFTSVPKNFMELLTNQEAQQWVSGWRLNADSVLWGGHKVFMVKPEEPFQPVKEATQL
# Variants of: B1
# Experiment: raw area under fraction-flipped curve 0-4 h after induction (AUC4h, not background-subtracted), DNA-recorder readout of cleavage of the substrate (dimensionless); higher = more cleavage of the substrate by the protease variant
# Details: temperature: 34 °C; time window: 0-4 h after rhamnose induction
# Protocol: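 In vivo DNA recorder in E. coli TOP10(DE3) ΔrhaA at 34 °C. Each TEVp single-site mutant (parent TEVp 0) is paired with a single-site variant of the 7-mer TEVs (canonical ENLYFQ|S). The substrate sits between flexible linkers in a Bxb1-sfGFP-TEVs-SsrA fusion, so cleavage stabilises Bxb1 and speeds flipping of a recombination array, read by NGS. The value is the raw area under the fraction-flipped curve over 0-4 h after rhamnose induction (AUC4h), with ≥20 reads per time point. It is not background-subtracted; inactive controls average about 0.047.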
# 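Further: Bxb1 expression induced with 0.2% (w/v) L-rhamnose at OD600 near 0.5, cultures sampled hourly, flipped fraction per protease–substrate barcode pair counted by paired-end Illumina sequencing.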
Variant,area with substrate EALYFQS,area with substrate ECLYFQS,area with substrate EDLYFQS,area with substrate EELYFQS,area with substrate EFLYFQS,area with substrate EGLYFQS,area with substrate EILYFQS,area with substrate ELLYFQS,area with substrate EMLYFQS,area with substrate EPLYFQS,area with substrate EQLYFQS,area with substrate ESLYFQS,area with substrate ETLYFQS,area with substrate EVLYFQS,area with substrate EWLYFQS,area with substrate EKLYFQS,area with substrate ERLYFQS,area with substrate EYLYFQS,area with substrate EHLYFQS
MGESLFKGPRDYNPISSSICHLTNESDGHTTSLYGIGFGPFIKTNKHLFRRNNGTLVVQSLHGVFKVKDTTTLQQHLVDGRDMIIIRMPKDFPPFPQKLKFREPQREERICLVTTNFQTKSMSSMVSDTSCTFPSGDGIFWKHWIQTKDGQCGSPLVSTRDGFIVGIHSASNFTNTNNYFTSVPKNFMELLTNQEAQQWVSGWRLNADSVLWGGHKVFMVKPEEPFQPVKEATQL [I43K],0.0416,0.0343,0.0297,0.0548,0.0501,0.027,0.0485,0.055,0.049,0.0414,0.0713,0.0472,0.0484,0.0261,0.0444,–,–,–,–
MGESLFKGPRDYNPISSSICHLTNESDGHTTSLYGIGFGPFIRTNKHLFRRNNGTLVVQSLHGVFKVKDTTTLQQHLVDGRDMIIIRMPKDFPPFPQKLKFREPQREERICLVTTNFQTKSMSSMVSDTSCTFPSGDGIFWKHWIQTKDGQCGSPLVSTRDGFIVGIHSASNFTNTNNYFTSVPKNFMELLTNQEAQQWVSGWRLNADSVLWGGHKVFMVKPEEPFQPVKEATQL [I43R],0.0558,0.0504,0.0436,0.0481,0.111,0.0566,0.0604,0.0377,0.0368,0.0365,0.0376,0.0481,0.0442,0.0298,0.0484,0.0569,0.0541,0.0489,–
MGESLFKGPRDYNPISSSICHLTNESDGHTTSLYGIGFGPFIIANKHLFRRNNGTLVVQSLHGVFKVKDTTTLQQHLVDGRDMIIIRMPKDFPPFPQKLKFREPQREERICLVTTNFQTKSMSSMVSDTSCTFPSGDGIFWKHWIQTKDGQCGSPLVSTRDGFIVGIHSASNFTNTNNYFTSVPKNFMELLTNQEAQQWVSGWRLNADSVLWGGHKVFMVKPEEPFQPVKEATQL [T44A],0.0944,0.0902,0.104,0.0897,0.0673,0.0908,0.0809,–,0.101,0.148,0.0897,0.0714,–,0.0822,0.089,0.0928,0.0865,–,–
MGESLFKGPRDYNPISSSICHLTNESDGHTTSLYGIGFGPFIIFNKHLFRRNNGTLVVQSLHGVFKVKDTTTLQQHLVDGRDMIIIRMPKDFPPFPQKLKFREPQREERICLVTTNFQTKSMSSMVSDTSCTFPSGDGIFWKHWIQTKDGQCGSPLVSTRDGFIVGIHSASNFTNTNNYFTSVPKNFMELLTNQEAQQWVSGWRLNADSVLWGGHKVFMVKPEEPFQPVKEATQL [T44F],0.0494,0.0671,0.074,0.0682,0.0503,0.0566,0.0402,–,0.0552,0.0426,0.0688,0.064,0.03,0.0518,–,0.0571,0.058,0.0466,0.0618
MGESLFKGPRDYNPISSSICHLTNESDGHTTSLYGIGFGPFIITNSHLFRRNNGTLVVQSLHGVFKVKDTTTLQQHLVDGRDMIIIRMPKDFPPFPQKLKFREPQREERICLVTTNFQTKSMSSMVSDTSCTFPSGDGIFWKHWIQTKDGQCGSPLVSTRDGFIVGIHSASNFTNTNNYFTSVPKNFMELLTNQEAQQWVSGWRLNADSVLWGGHKVFMVKPEEPFQPVKEATQL [K46S],0.102,0.0861,0.111,0.115,0.0826,0.0576,0.0778,0.0836,0.0846,0.114,0.112,0.0937,–,0.0776,0.0857,–,0.0862,0.0899,0.0913
MGESLFKGPRDYNPISSSICHLTNESDGHTTSLYGIGFGPFIITNKHAFRRNNGTLVVQSLHGVFKVKDTTTLQQHLVDGRDMIIIRMPKDFPPFPQKLKFREPQREERICLVTTNFQTKSMSSMVSDTSCTFPSGDGIFWKHWIQTKDGQCGSPLVSTRDGFIVGIHSASNFTNTNNYFTSVPKNFMELLTNQEAQQWVSGWRLNADSVLWGGHKVFMVKPEEPFQPVKEATQL [L48A],0.0873,–,–,–,0.0704,0.0669,0.0671,0.0896,0.0902,0.0795,0.0893,0.0774,–,0.0762,0.0743,–,0.108,0.0825,0.0851
MGESLFKGPRDYNPISSSICHLTNESDGHTTSLYGIGFGPFIITNKHCFRRNNGTLVVQSLHGVFKVKDTTTLQQHLVDGRDMIIIRMPKDFPPFPQKLKFREPQREERICLVTTNFQTKSMSSMVSDTSCTFPSGDGIFWKHWIQTKDGQCGSPLVSTRDGFIVGIHSASNFTNTNNYFTSVPKNFMELLTNQEAQQWVSGWRLNADSVLWGGHKVFMVKPEEPFQPVKEATQL [L48C],0.0951,0.0822,0.135,0.0821,0.0777,–,0.0584,0.0779,–,–,0.0861,0.0577,0.0899,0.072,0.0888,0.0461,0.0678,0.0635,–
MGESLFKGPRDYNPISSSICHLTNESDGHTTSLYGIGFGPFIITNKHEFRRNNGTLVVQSLHGVFKVKDTTTLQQHLVDGRDMIIIRMPKDFPPFPQKLKFREPQREERICLVTTNFQTKSMSSMVSDTSCTFPSGDGIFWKHWIQTKDGQCGSPLVSTRDGFIVGIHSASNFTNTNNYFTSVPKNFMELLTNQEAQQWVSGWRLNADSVLWGGHKVFMVKPEEPFQPVKEATQL [L48E],0.0645,0.0492,–,0.0511,0.068,–,0.0574,0.0363,0.0577,–,–,0.0629,–,0.0412,0.0595,–,0.062,–,–
MGESLFKGPRDYNPISSSICHLTNESDGHTTSLYGIGFGPFIITNKHFFRRNNGTLVVQSLHGVFKVKDTTTLQQHLVDGRDMIIIRMPKDFPPFPQKLKFREPQREERICLVTTNFQTKSMSSMVSDTSCTFPSGDGIFWKHWIQTKDGQCGSPLVSTRDGFIVGIHSASNFTNTNNYFTSVPKNFMELLTNQEAQQWVSGWRLNADSVLWGGHKVFMVKPEEPFQPVKEATQL [L48F],0.119,0.0876,–,0.115,–,–,–,0.098,0.128,–,0.116,0.107,–,0.11,0.0912,0.111,–,0.113,0.131
